# In PubChem BioAssay AID1634 (National Center for Advancing Translational Sciences (NCATS), 2009):
# In all, about 260,000 compounds went through this assay and about 150 (0.058%) were called active. This list was built around the results that the source calls inconclusive (neither active nor inactive); the mix of calls is not that of the screen. The call rests on the fitted dose curve; in most records, active means well fitted inhibition curve with a large enough effect; inconclusive means small, poorly fitted or top-dose-only effect; inactive means no such curve, though single readings can be large or run the other way. No potency is given beside an inconclusive call; the fits are too rough.
# Biological target: Pyruvate kinase PKM (Homo sapiens) (UniProt P14618)
# Test: qHTS Assay for Inhibitors of Human Muscle isoform 2 Pyruvate Kinase; further: nearly all actives have a fitted effect of over 60% in size
# Settings: purified PKM2, ATP generation, Kinase-Glo luminescence; series mostly up to 57.5 µM
# Outline: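 Coupled luciferase luminescence (Kinase-Glo) detects ATP generated from 0.1 mM ADP and 0.5 mM PEP in imidazole buffer pH 7.2 with KCl, MgCl2; 1 h at room temperature. Enzyme at intermediate activity; normalized to uninhibited and no-enzyme controls.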
# Potency means the concentration at half of the fitted maximal effect; tags describe the fitted curve by direction and shape.
# UniProt P14618, sequence (P14618 whole entry, looked up, canonical isoform): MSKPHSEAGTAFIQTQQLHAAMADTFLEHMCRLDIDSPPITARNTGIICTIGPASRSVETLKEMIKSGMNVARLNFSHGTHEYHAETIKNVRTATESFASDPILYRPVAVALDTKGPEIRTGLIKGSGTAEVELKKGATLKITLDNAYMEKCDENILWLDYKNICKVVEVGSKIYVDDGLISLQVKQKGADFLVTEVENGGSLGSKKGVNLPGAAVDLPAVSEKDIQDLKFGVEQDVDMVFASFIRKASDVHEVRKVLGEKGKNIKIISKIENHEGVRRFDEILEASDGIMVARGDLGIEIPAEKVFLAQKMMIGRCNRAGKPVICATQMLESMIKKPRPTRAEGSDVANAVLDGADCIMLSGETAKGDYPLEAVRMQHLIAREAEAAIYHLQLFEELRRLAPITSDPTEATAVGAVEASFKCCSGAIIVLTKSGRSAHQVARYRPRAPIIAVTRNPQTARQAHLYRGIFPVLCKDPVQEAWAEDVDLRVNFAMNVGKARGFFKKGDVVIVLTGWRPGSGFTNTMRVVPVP
row,SMILES,Potency
1,Cc1ccc(NC(=O)c2cnn(-c3ccccc3)c2C)cc1C,inactive
2,CCOC(=O)c1nnc(-c2ccc(C)cc2)nc1N1CCSCC1,"inconclusive [falling, single point]"
3,Cc1ccc(-c2nc3ccccc3[nH]2)cn1,"inconclusive [falling, partial curve]"
4,Clc1cccc(-c2nc(-c3ccccn3)no2)c1,"inconclusive [falling, partial curve]"
5,Cc1ccc(S(=O)(=O)Nc2cccc3ncccc23)s1,inactive
6,Nc1nc2ccccc2n1C(=O)c1ccco1,"inconclusive [falling, single point]"
7,Cc1cccc(/C(N)=N/OC(=O)N2CCOCC2)c1,"inconclusive [falling, single point]"
8,COC(=O)c1sccc1NC(=O)Nc1cccc(C(C)=O)c1,"inconclusive [falling, partial curve]"
9,Cc1ccccc1CS(=O)(=O)c1nnc([C@H](CC(C)C)NC(=O)OC(C)(C)C)o1,inactive
10,Cn1c(=O)n(C)c2cc(NS(=O)(=O)c3ccc(F)cc3)ccc21,inactive
11,CCn1cc(C(=O)NCc2ccc3c(c2)OCO3)c2cc(OC)c(OC)cc2c1=O,inactive
12,COc1cccc(/C=N/Nc2ccc(C(=O)O)cc2)c1O,"inconclusive [falling, partial curve]"
13,COc1ccccc1CNC(=O)C1=CCN(S(=O)(=O)c2ccc(C)cc2)CC1,inactive
14,Cc1ccc(/C=N/NC(=O)CSc2nc3ccccc3n2Cc2ccc(Cl)cc2)o1,inactive
15,CCOC(=O)c1csc(-c2sccc2Br)n1,"inconclusive [falling, partial curve]"
16,COc1ccc(N2C(=O)CC(NNC(=O)c3cc(C)oc3C)C2=O)cc1 (centres undefined),"inconclusive [falling, single point]"
17,COc1cc(N=c2ssnc2Cl)cc(OC)c1,"inconclusive [falling, partial curve]"
18,CC(=O)c1sc(NC(=O)c2ccc(Br)o2)nc1C,"inconclusive [falling, single point]"
19,CCOc1c(Cl)cc(CNCc2ccccn2)cc1OC,"inconclusive [falling, single point]"
20,Cc1ccc2nc(-c3cccc(N)c3)[nH]c2c1,"inconclusive [falling, partial curve]"
21,CCCCCCNC(=O)N[C@H](C(=O)NCCC[C@H]1CN2C(=NC[C@H]2C)N1CCC(c1ccccc1)c1ccccc1)C(C)O (some centres undefined),"inconclusive [falling, partial curve]"
22,CC(=O)NC(=S)Nc1sc2c(c1C#N)CCCCC2,"inconclusive [falling, single point]"
23,CSc1nc(=S)c2[nH]c(=S)[nH]c2[nH]1,"inconclusive [falling, partial curve]"
24,COc1ccc(S(=O)(=O)N(C)C)cc1NCC(=O)Nc1ccc(Br)c(C)c1,inactive
25,COc1cccc(/C=N/N2C(=O)CSC2=S)c1O,"inconclusive [falling, single point]"
26,CC1CN(c2nc3c(c(=O)[nH]c(=O)n3C)n2Cc2ccccc2F)CC(C)O1 (centres undefined),inactive
27,c1ccc(SCc2cn3cccnc3n2)nc1,"inconclusive [falling, single point]"

row,SMILES,Potency
1,COc1ccc2ccccc2c1C1CC(=O)N2CN(C)CSC2=C1C#N (centres undefined),"inconclusive [falling, single point]"
2,N#C/C(=C/c1ccc(N2CCOCC2)o1)C(=O)Nc1ccccc1,"inconclusive [falling, single point]"
3,Cc1ccc(-c2ccc(SCC(=O)Nc3cc(C)on3)nn2)cc1,inactive
4,COc1ccccc1C1=Nn2c(nnc2C2CCCCC2)SC1,"inconclusive [falling, full curve, poor fit]"
5,O=C(NC1=NCCS1)[C@H](Cc1ccccc1)N1C(=O)c2ccccc2C1=O,inactive
6,CCOC(=O)N1CCC(=NNC(=O)COc2ccc(OC)cc2)CC1,inactive
7,CC(C)(C)C1=CC(=O)C(=O)C(C(C)(C)C)=C1,inactive
8,COc1cccc(NC(=O)CSc2nc3c(c(=O)n2C)SC(C)C3)c1 (centres undefined),inactive
9,Cc1nnc(SCc2ccccc2CSc2nnc(C)s2)s1,inactive
10,COC(=O)CC1C(=O)NCCN1C(=O)CSc1nnc(Nc2ccc(OC)cc2)s1 (centres undefined),"inconclusive [falling, single point]"
11,Cc1cccc(NS(=O)(=O)c2ccc3oc(=O)ccc3c2)c1C,inactive
12,COc1ccc(OC)c(/C=N/NC(=O)c2cc(-c3ccc(C)o3)nc3ccccc23)c1,inactive
13,CCOC(=O)Cc1csc(NC(=O)c2ccoc2C)n1,"inconclusive [falling, single point]"
14,CCN(CC)c1ccc(/C=N/NC(=O)c2ccoc2C)cc1,active: 28.2 µM
15,O=C(O)/C=C/c1cccc(OCc2ccccc2)c1,"inconclusive [falling, single point]"
16,COCCNC(=O)/C(C#N)=C/c1ccc2c(c1)OCO2,"inconclusive [falling, single point]"
17,COc1ccc(C(=O)Nc2ccc3c(c2)OCO3)cc1OC,"inconclusive [falling, partial curve, poor fit]"
18,CCC(Sc1nc2ncnc(N)c2[nH]1)C(=O)O (centres undefined),"inconclusive [falling, single point]"
19,O=C(CSc1ccc(-c2ccco2)nn1)Nc1cccc(F)c1,inactive
20,CSc1nnnn1-c1ccc(C(=O)OCC(=O)N2CCOCC2)cc1,inactive
21,COC(=O)c1cc(N2CCN(C)CC2)nc2ccccc12,"inconclusive [falling, single point]"
22,Cc1ccc(O)c(NC(=O)CCC2CCCCC2)c1,"inconclusive [falling, full curve, poor fit]"
23,CN(C)c1ccc(-c2nc3ccccc3n2C)cc1,"inconclusive [falling, partial curve]"
24,COc1cc(C(=O)Nc2scc(-c3ccccc3)c2C(=O)O)cc(OC)c1OC,"inconclusive [falling, single point]"
25,CCn1c(=O)c(=O)n(CC)c2cc(S(=O)(=O)Nc3ccc(C)cc3)ccc21,inactive
26,O=C(O/N=C1\CCCc2ccccc21)c1cccs1,"inconclusive [falling, partial curve]"
27,CSc1ccccc1C(=O)Nc1ccccc1C(=O)NC(C)C,"inconclusive [falling, single point]"

row,SMILES,Potency
1,O=C1CN(S(=O)(=O)c2ccc(Cl)cc2C(F)(F)F)CCN1,inactive
2,Cc1cc(C)n2cc(CSc3nnnn3-c3ccccc3)nc2n1,inactive
3,O=C(NCc1nnc2c(C(F)(F)F)cc(Cl)cn12)c1ccco1,inactive
4,O=C(Nc1nccs1)c1cn2ccccc2n1,"inconclusive [falling, single point]"
5,COc1cc(OC)c(C(=O)NCc2ccc3c(c2)OCO3)cc1OC,"inconclusive [falling, single point]"
6,O=C(/C=C/Nc1ccc(F)cc1Br)c1ccccc1,"inconclusive [falling, single point]"
7,c1ccc(-c2nc3ccccc3[nH]2)nc1,"inconclusive [falling, partial curve]"
8,COc1cc(N2C(=O)C=CC2=O)c(OC)cc1Cl,inactive
9,O=C(c1ccc(Cl)c(S(=O)(=O)N2CCCCCC2)c1)N1CCOCC1,inactive
10,CCOC(=O)c1sc(S(C)(=O)=O)c2c1CC(C)(C)C/C2=N/O,"inconclusive [falling, single point]"
11,CCN1CCN(C(=O)c2cc3cc([N+](=O)[O-])ccc3oc2=O)CC1,"inconclusive [falling, single point]"
12,Nc1c(O)ccc2c1C(=O)c1ccccc1C2=O,"inconclusive [falling, partial curve, poor fit]"
13,O=C(COC(=O)C1=Cc2ccccc2OC1)NC1CCCC1,inactive
14,COc1ccc(NC(=O)N2CCCC2C(=O)NCc2ccc(C)cc2)cc1 (centres undefined),"inconclusive [falling, single point]"
15,O=[N+]([O-])c1ccc(-n2nnnc2-c2ccccc2)cc1,inactive
16,N#CCCn1c(SCC(=O)NCC2CCCO2)nc2ccccc21 (centres undefined),inactive
17,COc1ccc(NC(=O)NNC(=O)CCc2ccc(O)c(O)c2)cc1OC,"inconclusive [falling, partial curve]"
18,O=C(NCCc1c[nH]c2ccccc12)C1CCCN(S(=O)(=O)c2ccccc2)C1 (centres undefined),inactive
19,CS(=O)(=O)c1ccc2nc(NC(=O)c3cccs3)sc2c1,"inconclusive [falling, single point]"
20,COc1ccccc1/C=C/C(=O)NNC(=O)c1cccs1,"inconclusive [falling, single point]"
21,O=c1[nH][nH]c(=S)n1C1CCCCC1,"inconclusive [falling, single point]"
22,Cc1ccc(C(=O)N(CN2CCCC2=O)c2ccccc2)cc1,"inconclusive [falling, single point]"
23,CC1CCC2C(=O)N(c3ccc(C(=O)NCc4ccccc4)cc3)C(=O)C2C1 (centres undefined),"inconclusive [falling, partial curve]"
24,Cn1cc([N+](=O)[O-])c(C(=O)N/N=C\c2c[nH]c3ccccc23)n1,"inconclusive [falling, single point]"
25,CCN(/N=C/c1ccccc1)c1cc(=O)n(C)c(=O)[nH]1,inactive
